For this assay, the target named is StrepII-SUMO-Beclin 1 (F359D/F360D/W361D) (human, UniProt Q14457, F359D | F360D | W361D). Briefly: AlphaScreen or HTRF. (In general: Bead proximity is the source of the signal in Alpha formats.)

B1: Bcl-2–6xHis ([…]) (domain or fragment)
chain: not shown
For B1, the binding result is listed as “binds”.

(Values after PMC6250051 (ACS chemical biology, 2018).)
